± gives the standard deviation of the averaged measurements. This is one part of the list.

The assay deals with PfAP2-G AP2 domain (GST-tagged). Put plainly: gcPBM binding intensity (ln(normalized median fluorescence intensity)); higher = stronger DNA binding. Summed up:
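For binding intensity, the highest Masliner-normalised natural-log median intensity across replicate spots of either probe orientation was taken. Protein bound to the array was stained with Alexa488 anti-GST antibody and scanned at 488 nm. The protein, GST-tagged P. falciparum DNA-binding domains from E. coli at about 25 μg on average, had been applied for 1 h to an Agilent 4 × 180k array of primer-extended double-stranded 36-bp intergenic genomic probes and negative controls.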
In the case of “TTTGAACATTTTGCAAGTACAAAAAAATAATATATC [XGTACX_site8079]”, the “gcPBM binding intensity (ln)” value amounted to 11.1 ± 0.79.
As to “AAAAAAATATATATATGTACATAACTTTGTTGTGAT [XGTACX_site5243]”, the “gcPBM binding intensity (ln)” value was found to be 11.1 ± 0.49.
Consider “AATGTAAAACCTCCTACACACACCAATTAACTATTC [CACACA_site2112]”, for which the “gcPBM binding intensity (ln)” value turned out to be 10.09 ± 0.042.
“TACTTATCGTTAAATTGTACTAAAAAATATTTTTCT [XGTACX_site4665]”: the “gcPBM binding intensity (ln)” value is 11 ± 0.61.
Regarding “TAAAATTTTGTTTGTTGTACTTATTTTCGTGTCAAC [XGTACX_site8277]”, the “gcPBM binding intensity (ln)” value is 11.6 ± 1.
“AAAGATGAATTTTTTACACACACCATTTTATAATAT [CACACA_site3676]”: the “gcPBM binding intensity (ln)” value turned out to be 10 ± 0.11.
In the case of “AAAAAAAAAAAAAAAAAAAAATATATATATATATAT [GTGCAC_negctrl_site426]”, the “gcPBM binding intensity (ln)” value worked out at 10.7 ± 0.45.
For the sequence “AAAAGTATAATAAATTGTACTAACAAATATTTATGT [XGTACX_site7721]”, the “gcPBM binding intensity (ln)” value is 10.9 ± 0.56.
To “TGGTATTAAGGAGAGGGTACAAAAAAAAAAAAAAAA [XGTACX_site1668]” belongs 11.1 ± 0.87; to “TTATAATAAAAGGCTTTACAATTATTAAACAAATAA [GTGCAC_negctrl_site480]”, 9.53 ± 0.26; to “AAAAAAGAAGAGCACACACACATATATAAATATAAA [CACACA_site631]”, 9.98 ± 0.2.
As for “GCCATTGTACCATCCACACACATATATATCTGTATA [CACACA_site5490]”, the “gcPBM binding intensity (ln)” value came to 10.9 ± 0.57.
Turning to “ATGGTATAAAAAAATACACACTTATATATATTCTTA [CACACA_site4427]”, the “gcPBM binding intensity (ln)” value is 9.925 ± 0.035.
In the case of “TTTTTTTTTTTTTCTCGTACAAAATAATACCTTTTT [XGTACX_site3867]” it was 10.7 ± 0.69.
Turning to “GTAGACATTATAATGGTGCAAAAAAATTAACAAAAA [GTGCAC_site9891]”, the “gcPBM binding intensity (ln)” value amounted to 10.5 ± 0.54.
With “TTCTAATATTTACATAATATATAGAAATATAAAGGT [XGTACX_negctrl_site504]”, the “gcPBM binding intensity (ln)” value stood at 9.99 ± 0.2.
On to “AAATATAAACTCAGCACACAAACATATATATGTCAT [CACACA_site4004]”, for which the “gcPBM binding intensity (ln)” value came out at 9.995 ± 0.078.
Take “AGGGAATATTTTTATGCATGTGCTTACACATTACAA [TGCATGCA_site830]”: the “gcPBM binding intensity (ln)” value amounted to 10 ± 0.25.
As for “AAAAAAAACGGACACACACACATACAAAATATATAT [CACACA_site4910]”, the “gcPBM binding intensity (ln)” value is 11.2 ± 0.86.
Take “AGGAGGATATTACACAGTACCCAGTAACTCTACGGA [XGTACX_site1998]”: the “gcPBM binding intensity (ln)” value amounted to 10.6 ± 0.36.
Consider “TCAGAGTGAAGTTATACACACATGGTTTTTTTTTTT [CACACA_site2116]”, for which the “gcPBM binding intensity (ln)” value was found to be 9.875 ± 0.021.
Turning to “AGAGAGAAAGCTATAACATGCAACAATTTTTAGAAA [TGCATGCA_site95]”, the “gcPBM binding intensity (ln)” value is 9.61 ± 0.18.
For the sequence “AAGTATGCGTTATATACACACATACATTTATATATC [CACACA_site6207]”, the “gcPBM binding intensity (ln)” value worked out at 9.91 ± 0.085.
In the case of “ATAAATAAAAAAAAAAAAAAAAAAAAAAAAAAAATA [CACACA_negctrl_site1064]”, the “gcPBM binding intensity (ln)” value came out at 9.56 ± 0.099.
On to “GTTGTATAAAATAATACATGCATGTCCTACATATAT [TGCATGCA_site162]”, for which the “gcPBM binding intensity (ln)” value is 10.9 ± 0.63.
In the case of “TTTTTTTTTTTAAATACATGCATGTCCTATTTAAAT [TGCATGCA_site494]” it was 10.4 ± 0.61; in that of TTTTTTTGATAAAAGGTGCTACAAGATGAATACATA, 10.3 ± 0.4; in that of “TAATATATTTATAAGTGTACACATTATATAAATCCC [XGTACX_site8875]”, 11.7 ± 0.74.
Regarding “CCGCATTTTACAGACACACACAATTTATATTACGGT [CACACA_site6974]”, the “gcPBM binding intensity (ln)” value amounted to 10.3 ± 0.26.
Turning to “AGTAATAACTATATATGTACATATATATATTATTAG [XGTACX_site1113]”, the “gcPBM binding intensity (ln)” value is 11.1 ± 0.67.
To “GTAATATATTTTTATGGTACACGAACTAGCCAAAAA [XGTACX_site6307]” belongs 11.3 ± 0.88.
On to “TTACCTTTAAATGGATGTACAGAAATTTAAATTGTT [XGTACX_site7044]”, for which the “gcPBM binding intensity (ln)” value came out at 11.1 ± 0.73.
As for “CTTCCTTCTAAATGCACACGGAAAGTATAAATGTAT [CACACA_site2501]”, the “gcPBM binding intensity (ln)” value was found to be 10.1 ± 0.15.
Consider “TATATTATTTATTTTTGTACATATTATGAATGAATA [XGTACX_site3971]”, for which the “gcPBM binding intensity (ln)” value was 10.9 ± 0.42.
To “AAAATAAATATGAACACACACATTTATGCCTTTAAA [CACACA_site1271]” belongs 9.915 ± 0.007; to “TATTTGTTTTTATATAGTACATAAATATATATATAT [XGTACX_site7834]”, 10.9 ± 0.61; to ATTATTTATATTATGGTGCATAATTTTGGGTTTCTT, 10.06 ± 0.049.
Turning to “AGAGATATAAGAAAAGCACACACACCCAAAAAAAAA [CACACA_site8917]”, the “gcPBM binding intensity (ln)” value amounted to 10.5 ± 0.45.
To “TATATACAAAAAATATGTACATATATATATATATAT [XGTACX_site3497]” belongs 11.3 ± 0.64; to “AAAAAATAAATAAATACACACACACTAATATATATA [CACACA_site8488]”, 9.915 ± 0.035; to “CAGATAGACTTATATGCATGCATTCACATACCAACA [TGCATGCA_site163]”, 9.96 ± 0.071.
In the case of “AACAACATTTTGTAATGTACATATTTACTTATATTC [XGTACX_site7251]” it was 11 ± 0.57; in that of “TATATTATTTATTAGACACACATTATTAATATATTT [CACACA_site1078]”, 10 ± 0.13; in that of “TGGATTTTGTATTAATGTACATATATATATATATAT [XGTACX_site4442]”, 11.1 ± 0.73.

The values are drawn from the supplement of paper PMC11417369.
